In PMC4336329 (PLoS ONE, 2015):
Among all 310,000 compounds or so, about 2,200 (0.71%) showed an effect of 50% or more. The effect is printed as a negative number. Some of the results follow.

target: human ether-à-go-go-related gene (hERG) potassium channel (human, UniProt Q12809); experiment: primary screen, population patch clamp on CHO cells stably expressing hERG
Sequence (Q12809 whole entry, looked up): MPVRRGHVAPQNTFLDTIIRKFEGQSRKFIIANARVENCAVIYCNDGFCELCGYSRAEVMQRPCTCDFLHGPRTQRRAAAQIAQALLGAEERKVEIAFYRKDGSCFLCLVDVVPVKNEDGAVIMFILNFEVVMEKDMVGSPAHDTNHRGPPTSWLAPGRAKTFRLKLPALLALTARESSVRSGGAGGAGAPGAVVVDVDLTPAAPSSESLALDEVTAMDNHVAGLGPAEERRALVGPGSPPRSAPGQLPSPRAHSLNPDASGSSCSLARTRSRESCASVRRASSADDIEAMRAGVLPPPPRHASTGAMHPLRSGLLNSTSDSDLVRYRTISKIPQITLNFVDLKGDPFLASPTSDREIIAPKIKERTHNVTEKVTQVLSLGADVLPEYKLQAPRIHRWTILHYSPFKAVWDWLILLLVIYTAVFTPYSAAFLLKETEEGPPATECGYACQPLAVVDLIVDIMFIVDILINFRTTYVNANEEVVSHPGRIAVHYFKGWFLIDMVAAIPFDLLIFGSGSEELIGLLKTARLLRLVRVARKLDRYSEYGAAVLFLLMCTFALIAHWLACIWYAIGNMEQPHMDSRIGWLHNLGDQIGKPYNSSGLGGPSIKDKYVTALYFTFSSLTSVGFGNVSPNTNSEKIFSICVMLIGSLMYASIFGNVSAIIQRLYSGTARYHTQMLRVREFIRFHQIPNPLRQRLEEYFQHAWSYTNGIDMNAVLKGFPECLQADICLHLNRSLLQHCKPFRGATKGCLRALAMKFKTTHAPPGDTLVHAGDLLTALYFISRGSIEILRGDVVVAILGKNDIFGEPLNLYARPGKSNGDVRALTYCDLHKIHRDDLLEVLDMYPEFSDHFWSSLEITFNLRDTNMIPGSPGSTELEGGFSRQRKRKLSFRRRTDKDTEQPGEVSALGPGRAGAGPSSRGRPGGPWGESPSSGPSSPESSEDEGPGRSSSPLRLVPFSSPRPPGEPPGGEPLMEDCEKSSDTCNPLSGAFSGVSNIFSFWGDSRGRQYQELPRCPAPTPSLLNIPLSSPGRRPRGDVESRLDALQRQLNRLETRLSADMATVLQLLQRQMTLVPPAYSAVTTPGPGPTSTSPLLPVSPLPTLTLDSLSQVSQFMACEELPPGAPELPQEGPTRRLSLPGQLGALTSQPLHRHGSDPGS

First: CCOCC(=O)Nc1nc2ccccc2s1
Second: Cc1ccccc1OCC(=O)NCc1ccccc1
The “hERG current change (%, negative = inhibition) at 1uM” value of the first is higher: 15.9% for the first, 6.9% for the second.

Going from `CCOc1ccc(N=C(C)C2=C(O)c3ccccc3C2=O)cc1` to `CC(C)c1ccc(OCC(=O)NN2C(=O)c3ccccc3C2=O)c(Br)c1`, the “hERG current change (%, negative = inhibition) at 1uM” value rises from 6.16% to 21.9%.

Going from `CCS(=O)(=O)c1nc(S(=O)(=O)c2ccc(C)cc2)c(N2CCC3(CC2)OCCO3)s1` to `Cc1ccc(S(=O)(=O)Nc2ccc(S(=O)(=O)N3CCCC3)cc2)cc1`, the “hERG current change (%, negative = inhibition) at 1uM” value falls from 7.8% to 3.43%.

Compared with `CCC(C)(C)NC(=O)C(OC(=O)c1ccco1)c1ccccc1OC` (stereo not drawn), `COC(=O)C1OC2(OC1C(=O)OC)c1ccccc1-c1ccccc12` (stereo not drawn) is higher in “hERG current change (%, negative = inhibition) at 1uM” value: -2.92% for the first, 14.6% for the second.

Compared with `CCN1CCN(CC(O)COc2ccc(C)c(C)c2)CC1.Cl` (stereo not drawn), `CCOC(=O)C1CCCN(C(=O)Cn2nc(C)n3c(cc4c(OC)cccc43)c2=O)C1` (stereo not drawn) is higher in “hERG current change (%, negative = inhibition) at 1uM” value: 0.714% for the first, 0.901% for the second.

Compared with `O=S(=O)(NC1=NCCCCC1)c1cccs1`, `Cc1ccc(C(=O)NCc2cccs2)cc1S(=O)(=O)N1CCCCC1` is lower in “hERG current change (%, negative = inhibition) at 1uM” value: 9.46% for the first, 6.79% for the second.

Going from `O=C(NC(=S)N1CCN(c2ccccc2)CC1)c1ccc(S(=O)(=O)N2CCOCC2)cc1` to `COCCN(Cc1ccccc1)C(=O)c1cccc(S(=O)(=O)N2CCN(c3ccccc3)CC2)c1`, the “hERG current change (%, negative = inhibition) at 1uM” value falls from 16.8% to -8.28%.

First: COc1ccc(OC)c(CNC(=O)C2CCCN(S(=O)(=O)N3CC(C)CC(C)C3)C2)c1 (stereo not drawn)
Second: O=C(CCN1CCCCC1=O)NC1CCCN(Cc2ccc(Cl)cc2)C1 (stereo not drawn)
The “hERG current change (%, negative = inhibition) at 1uM” value of the first is higher: 9.2% for the first, 5.7% for the second.

First: CC1(C)C2CCC1(C)C(NC(=O)/C=C/c1ccccc1)C2 (stereo not drawn)
Second: CC(/C=C/c1ccccc1)=N\NC(=O)c1cc(C)[nH]n1
The “hERG current change (%, negative = inhibition) at 1uM” value of the first is higher: 11.4% for the first, 3.73% for the second.

Compared with `CC(=O)Nc1ccc(C(=O)COC(=O)CCc2ccccc2)c(F)c1`, `CCC(C)[C@H](NS(=O)(=O)c1ccc(C)cc1)C(=O)N1CCC(C(=O)N[C@@H](Cc2ccccc2)C(=O)O)CC1` (stereo partly drawn) is higher in “hERG current change (%, negative = inhibition) at 1uM” value: 3.03% for the first, 16.7% for the second.

Compared with `Cc1ccn2c(=O)nc(SCC(=O)NCc3ccccc3Cl)nc2c1`, `Cc1cc(C)c2nc(SCC(=O)Nc3ccccc3N3CCOCC3)c(C#N)cc2c1` is lower in “hERG current change (%, negative = inhibition) at 1uM” value: 5.79% for the first, -14.9% for the second.

First: O=S(=O)(CCN1CCN(C(c2ccccc2)c2ccccc2)CC1)C(F)(F)F
Second: COc1ccc(S(=O)(=O)Cc2ccc(C(=O)N3CCN(c4ccccc4F)CC3)o2)cc1
The “hERG current change (%, negative = inhibition) at 1uM” value of the first is higher: 13.6% for the first, -8.15% for the second.

Compared with `CC1(c2cccc(Br)c2)NC(=O)N(CC(=O)NCC2CCCO2)C1=O` (stereo not drawn), `Cc1oc(-c2cccc3ccccc23)nc1CN1CCC[C@H]1CO` is higher in “hERG current change (%, negative = inhibition) at 1uM” value: 8.58% for the first, 12.7% for the second.

Compared with `Cc1ccc(N2CCN(C(=O)c3cc(-c4ccc(F)cc4)[nH]c3C)CC2C)cc1` (stereo not drawn), `O=c1[nH]c(=S)n(Cc2ccc(F)cc2)c(O)c1/C=N/N1CCCCCC1` is lower in “hERG current change (%, negative = inhibition) at 1uM” value: 10.3% for the first, -17.2% for the second.

Going from `CCN(CC)CCOc1nnc(-c2ccc(C)cc2)c2ccccc12` to `CCN(CC)CCOC(=O)c1ccc(NC(=O)CCCN2C(=O)/C(=C/c3cccs3)SC2=S)cc1`, the “hERG current change (%, negative = inhibition) at 1uM” value rises from -58.4% to 13.4%.

First: CCOC(=O)Cc1nnc(NC(=O)c2cccc(OCC)c2)s1
Second: CCc1nnc(NC(=O)c2cc(C)oc2C)s1
The “hERG current change (%, negative = inhibition) at 1uM” value of the first is higher: 5.24% for the first, -12.5% for the second.

Going from `CC(C)C(OC(=O)c1oc2ccccc2c1CSC1CCCCC1)C(=O)NC(N)=O` (stereo not drawn) to `CC(=O)N1CC(C)Oc2ccc(S(=O)(=O)NC(CC(=O)O)c3ccc(C)cc3C)cc21` (stereo not drawn), the “hERG current change (%, negative = inhibition) at 1uM” value rises from 12.5% to 13.9%.

First: O=C(O)CCS(=O)(=O)c1cc(Br)cc2c1N(C(=O)C1CC1)CC2
Second: CCCn1cc(C(=O)O)cn1
The “hERG current change (%, negative = inhibition) at 1uM” value of the first is lower: 9.91% for the first, 12.6% for the second.

Compared with `O=C(Cc1ccc(Cl)cc1)NNC(=S)NC(=O)c1cccs1`, `Cc1ccc(C(=O)N/C(=C/c2ccc(-c3cccc([N+](=O)[O-])c3)o2)C(=O)NCCCN(C)C)cc1` is lower in “hERG current change (%, negative = inhibition) at 1uM” value: 15.1% for the first, -73.3% for the second.

Compared with `Cc1ccc(S(=O)(=O)n2nc(OC(=O)c3ccco3)cc2N)cc1`, `Cc1cc(C)nc(N/N=C/c2c[nH]c3ccccc23)n1` is higher in “hERG current change (%, negative = inhibition) at 1uM” value: 15% for the first, 24.3% for the second.

Going from `COc1cc(C(=O)N2CCN(c3cc(Cl)ccc3Cl)CC2)cc(OC)c1OC` to `NC(=O)c1cccc(C(N)=O)n1`, the “hERG current change (%, negative = inhibition) at 1uM” value rises from 7.1% to 15%.
